# Measurements taken from PubChem BioAssay (Tox21).
# Values joined by “and” are separate entries in the source; they are usually repeats but may differ in a detail not shown here. Identical values can stand only once. Inconclusive means that the source gave no clear call. Such entries were picked first, then a sample of the others. For some assays here: Where the call is inconclusive, the potency comes from a doubtful curve fit. The source holds several records for some structures; these can differ, active in one and inactive in another. Active and inactive are the calls of the source. Unless noted, the call rests on the fitted dose curve; in most records, active means well fitted curve in the direction sought with a large enough effect in the repeat runs; inconclusive means weak or mixed curves; inactive means no such curve, though single readings can be large; an effect the other way counts as inactive or inconclusive.
# Tests used:
# [1] = qHTS RealTime-Glo MT Cell Viability Assay in HEK293 cells - 24 hour (AID 1224886); further: nearly all actives have a fitted effect of over 50% in size; further: potency means the concentration at half of the fitted maximal effect
# In short: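 Nonlytic real-time viability readout: viable cells convert prosubstrate to NanoLuc substrate, giving luminescence proportional to live cell number. HEK293, 600 cells/well, compound added after 5 h, continuous culture at 37 C.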
# [2] = qHTS RealTime-Glo MT Cell Viability Assay in HEK293 cells - 8 hour (AID 1224887); further: nearly all actives have a fitted effect of over 50% in size; further: potency means the concentration at half of the fitted maximal effect
# In short: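 Real-time viability in HEK293: signal arises when living cells convert a prosubstrate for NanoLuc in the medium, so luminescence tracks viable cell number. Compound (23 nL, DMSO) added 5 h post-seeding; kinetic reads at 0–40 h, 37 C.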
# [3] = qHTS assay to identify small molecule HDAC inhibitors (AID 1259364);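 further: wild-type HCT-116 cells with endogenous class I/II HDAC activity; potency means the concentration at half of the fitted maximal effect; nearly all actives have a fitted effect of over 45% in size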
# In short: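 Cells (HCT-116, wild type) are seeded at 1,500 per well, incubated overnight, treated with compound in DMSO for 2 hr, then developed with HDAC-Glo I/II reagent for 30 min at room temperature.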
# [4] = qHTS RealTime-Glo MT Cell Viability Assay in HepG2 cells - 0 hour (AID 1224889); further: nearly all actives have a fitted effect of over 50% in size; further: potency means the concentration at half of the fitted maximal effect
# In short: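 Luminescence read-out: viable HepG2 cells reduce a prosubstrate to a NanoLuc substrate, giving a signal proportional to live cell number. Reads taken at 0, 8, 16, 24, 32 and 40 h of compound exposure at 37 C.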
# [5] = qHTS assay to identify small molecule antagonists of the sonic hedgehog signaling (Shh) pathway - cell viability counter screen (AID 1259367); further: nearly all actives have a fitted effect of over 55% in size; further: potency means the concentration at half of the fitted maximal effect
# In short: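 Fluorescence read-out (CellTiter-Fluor, 1 hr at 37C) taken after 23 hr compound treatment of 3T3 Gli1-Luc cells stimulated with conditioned medium. Cells were seeded at 2,000 per well and pre-incubated 4 hr.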
# [6] = A CellTox Green Cytotoxicity Assay to monitor cytotoxicity in HEK293 cells - 16 hour (AID 1224888); further: nearly all actives have a fitted effect of over 35% in size
# In short: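 Cells (HEK293, 600/well) and dye reagent are dispensed together. After 5 h at 37 C, 23 nL compound is pinned in. Plates stay at 37 C for 40 h with fluorescence read at 0h, 8h, 16h, 24h, 32h and 40h.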
# [7] = qHTS assay to identify small molecule phospholipidosis (PLD) inducers (AID 1259344; active means well fitted curve in the direction sought with a large enough effect; inconclusive means small, poorly fitted or top-dose-only effect, or another doubt; inactive means no such curve, though single readings can be large; an effect the other way counts as inactive or inconclusive; further: potency means the concentration at half of the fitted maximal effect); settings: HepG2 phospholipidosis, LipidTOX Red imaging, 24 h
# In short: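 Read-out is LipidTOX Red fluorescence (ex 595/em 615) imaged in HepG2 cells after 24 h compound exposure at 37 C, with Hoechst nuclear counterstain (ex 352/em 461) allowing per-cell normalisation.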
# [8] = qHTS assay to identify small molecule agonists of the sonic hedgehog signaling (Shh) pathway - cell viability counter screen (AID 1259366); further: nearly all actives have a fitted effect of over 50% in size
# In short: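 CellTiter-Fluor fluorescence read-out, 1 hr at 37C, added after 23hr compound exposure. Cells: 3T3 Gli1-Luc, an NIH/3T3 clone with stably integrated Gli1-Luc reporter, plated 4hr before compound.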
# [9] = target: Estrogen receptor (Homo sapiens) (UniProt P03372); assay: qHTS assay to identify small molecule antagonists of the estrogen receptor alpha (ER-alpha) signaling pathway using the BG1 cell line in the presence of 0.1 nM 17-beta-estradiol (AID 1259244)
# Sequence of UniProt P03372 (P03372 whole entry, looked up): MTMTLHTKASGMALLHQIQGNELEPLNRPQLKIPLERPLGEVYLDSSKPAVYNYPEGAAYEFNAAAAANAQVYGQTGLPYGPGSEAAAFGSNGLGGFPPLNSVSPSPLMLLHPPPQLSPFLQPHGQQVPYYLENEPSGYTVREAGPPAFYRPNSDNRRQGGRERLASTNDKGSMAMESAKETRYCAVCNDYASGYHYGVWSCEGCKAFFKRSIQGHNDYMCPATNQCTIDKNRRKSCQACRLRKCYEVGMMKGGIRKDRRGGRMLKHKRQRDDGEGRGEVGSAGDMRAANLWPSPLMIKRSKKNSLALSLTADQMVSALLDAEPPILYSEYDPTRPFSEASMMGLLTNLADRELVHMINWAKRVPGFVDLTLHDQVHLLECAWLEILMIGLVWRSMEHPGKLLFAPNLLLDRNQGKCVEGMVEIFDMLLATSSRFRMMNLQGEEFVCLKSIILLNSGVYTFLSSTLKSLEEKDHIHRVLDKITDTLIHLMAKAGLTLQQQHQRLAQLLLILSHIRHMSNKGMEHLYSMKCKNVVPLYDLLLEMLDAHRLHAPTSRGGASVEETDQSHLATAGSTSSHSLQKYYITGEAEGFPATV
# In short: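 Antagonist mode: compounds in DMSO are pinned onto VM7Luc4E2 reporter cells, 0.1 nM final 17beta-estradiol is added, and after 22 h at 37C luciferase luminescence is measured with ONE-Glo.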
# [10] = qHTS assay to identify small molecule antagonists of the androgen receptor (AR) signaling pathway using the MDA cell line in the presence of 0.5 nM R1881 - cell viability counter screen (AID 1259242); further: potency means the concentration at half of the fitted maximal effect; nearly all actives have a fitted effect of over 45% in size
# In short: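 Steps: plate MDA-kb2 cells, rest 5 hr at 37C without CO2; pin in compounds in DMSO; add R1881 to 0.5 nM final; incubate 16 hr; add CellTiter-Fluor, 30 min; read fluorescence.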
# [11] = qHTS assay to identify small molecule antagonists of the estrogen receptor alpha (ER-alpha) signaling pathway using the BG1 cell line in the presence of 0.1 nM 17-beta-estradiol - cell viability counter screen (AID 1259241); further: potency means the concentration at half of the fitted maximal effect; nearly all actives have a fitted effect of over 40% in size
# In short: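 Live-cell protease activity (CellTiter-Fluor fluorescence, 30 min) was read in the same wells after VM7Luc4E2 cells had been exposed to compounds with 0.1 nM 17beta-estradiol for 22 hr at 37C.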
# Tags describe the fitted curve by direction and shape.
compound,measurement,setting,value
NNc1nncc2ccccc12,Potency,[1],"inconclusive: 54.9 µM [cytotoxic, single point]"
same,Potency,[2],"inconclusive: 54.9 µM [cytotoxic, partial curve, poor fit]"
same,Potency,[3],"inconclusive: 34.4 µM [inhibitor, partial curve]"
O=C(Nc1ccc2c(c1)Cc1ccccc1-2)C(F)(F)F,Potency,[1],"inconclusive: 49 µM [cytotoxic, partial curve]"
same,Potency,[4],inactive
same,Potency,[3],"inconclusive: 43.3 µM [inhibitor, partial curve]"
O=C(NCC1CCCCN1)c1cc(OCC(F)(F)F)ccc1OCC(F)(F)F (stereo not drawn),Potency,[1],"inconclusive: 24.1 µM [cytotoxic, partial curve]"
same,Potency,[2],"inconclusive: 24.1 µM [cytotoxic, partial curve]"
same,Potency,[5],inactive
CCCCNc1ccc(C(=O)OCCN(CC)CC)cc1,Potency,[1],"inconclusive: 26.8 µM [cytotoxic, partial curve, poor fit]"
same,Potency,[6],inactive
same,Potency,[7],"inconclusive: 28.2 µM [activator, single point]"
C=CCOC(=O)CC(C)C,Potency,[1],inactive
same,Potency,[6],inactive
same,Potency,[8],inactive
C[C@]12CCC(=O)C=C1CC[C@@H]1[C@@H]2CC[C@@]2(C)[C@H]1CC[C@]2(O)C(=O)CO,Potency,[1],"inconclusive: 23.9 µM [cytotoxic, single point]"
same,Potency,[4],"inconclusive: 23.9 µM [cytotoxic, partial curve]"
CC(C)C[C@H](NC(=O)CNC(=O)[C@H](Cc1ccc(O)cc1)NC(=O)[C@H](CO)NC(=O)[C@H](Cc1c[nH]c2ccccc12)NC(=O)[C@H](Cc1cnc[nH]1)NC(=O)[C@@H]1CCC(=O)N1)C(=O)N[C@@H](CCCN=C(N)N)C(=O)N1CCC[C@H]1C(=O)NCC(N)=O (stereo in doubt),Potency,[1],inactive
same,Potency,[6],inactive
same,Potency,[5],inactive
O=S(=O)(Oc1ccc(Cl)cc1)c1ccccc1,Potency,[1],"inconclusive: 54.9 µM [cytotoxic, single point]"
same,Potency,[2],"inconclusive: 54.9 µM [cytotoxic, single point]"
same,Potency,[3],"inconclusive: 24.3 µM [inhibitor, partial curve]"
C[N+]1(CC2COC(c3ccccc3)(C3CCCCC3)O2)CCCCC1 (stereo not drawn),Potency,[1],"inconclusive: 12 µM [cytotoxic, partial curve]"
same,Potency,[2],inactive
COc1ccc2c(c1)c(CC(=O)O)c(C)n2C(=O)c1ccc(Cl)cc1,Potency,[1],"inconclusive: 10.7 µM [rising, single point]"
same,Potency,[2],"inconclusive: 13.4 µM [rising, single point]"
same,Potency,[9],"inconclusive: 27.5 µM [inhibitor, partial curve, poor fit] and inconclusive: 2.73 µM [inhibitor, single point]"
same,Potency,[5],"inconclusive: 54.8 µM [cytotoxic, partial curve, poor fit]"
O=C(O)c1ccc(S(=O)(=O)O)cc1C(=O)O,Potency,[1],"inconclusive: 55.1 µM [cytotoxic, single point]"
same,Potency,[2],"inconclusive: 55.1 µM [cytotoxic, single point]"
same,Potency,[4],"inconclusive: 49.1 µM [cytotoxic, partial curve]"
COc1ccccc1N1CCN(CCCNc2cc(=O)n(C)c(=O)n2C)CC1,Potency,[1],"inconclusive: 26.8 µM [cytotoxic, partial curve, poor fit]"
same,Potency,[2],"inconclusive: 26.8 µM [cytotoxic, partial curve, poor fit]"
C=C(C)C(=O)O[C@H]1C[C@@H]2CC[C@@]1(C)C2(C)C,Potency,[1],active: 15.4 µM
same,Potency,[2],"inconclusive: 19.4 µM [cytotoxic, full curve] and inactive"
same,Potency,[10],"inconclusive: 6.08 µM [cytotoxic, full curve]"
same,Potency,[9],active: 2.71 µM
CCC(C(=O)OCCN1CCOC(c2ccccc2)C1C)c1ccccc1 (stereo not drawn),Potency,[1],"inconclusive: 16.9 µM [cytotoxic, partial curve]"
same,Potency,[2],"inconclusive: 21.3 µM [cytotoxic, partial curve]"
same,Potency,[6],inactive
CCOC(=O)C1=NN(c2ccc(Cl)cc2Cl)C(C)(C(=O)OCC)C1 (stereo not drawn),Potency,[1],"inconclusive: 54.9 µM [cytotoxic, partial curve]"
same,Potency,[2],"inconclusive: 54.9 µM [cytotoxic, partial curve, poor fit]"
same,Potency,[9],inconclusive: 68.6 µM [inhibitor]
CC[C@H](C)C(=O)O[C@H]1C[C@H](O)C=C2C=C[C@H](C)[C@H](CC[C@@H](O)C[C@@H](O)CC(=O)O)[C@H]21,Potency,[1],inactive
same,Potency,[2],inactive
same,Potency,[11],"inconclusive: 0.243 µM [cytotoxic, single point]"
same,Potency,[7],inactive
CCC(Cc1ccccc1)(C(=O)c1ccc(N2CCOCC2)cc1)N(C)C (stereo not drawn),Potency,[1],"inconclusive: 21.9 µM [cytotoxic, partial curve]"
same,Potency,[2],"inconclusive: 7.76 µM [cytotoxic, partial curve, poor fit]"
same,Potency,[6],inactive
same,Potency,[10],inconclusive: 68.6 µM [cytotoxic]
same,Potency,[9],"inconclusive: 68.6 µM [inhibitor, single point]"
